Results taken from PubChem BioAssay (NCI).
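Grown in 96-well plates, cells were treated for 48 hours with each compound at five concentrations. Insufficient inhibition: endpoint recorded as highest concentration tested. TGI is the concentration that stops growth completely.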 Not every entry of the source has a single result; some have several. The other results are left out here. An entry can have further records. For some assays here: A record mostly stands for its own series of concentrations, which the source does not state; some values may only mark the edge of a range. For some assays here: Values that stand side by side are repeated measurements across runs, samples, wells, individuals or studies. Brackets tell where a record comes from. A, B and so on number the origins entry by entry.

How the values were obtained:
Test in all cases: NCI tumour cell line growth inhibition, 48 h
OVCAR-5 ovarian = tested on: OVCAR-5 ovarian
LOX IMVI melanoma = tested on: LOX IMVI melanoma
SF-295 CNS = tested on: SF-295 CNS
SR leukemia = tested on: SR leukemia
K-562 leukemia = tested on: K-562 leukemia
CAKI-1 renal = tested on: CAKI-1 renal
MCF7 breast = tested on: MCF7 breast
OVCAR-4 ovarian = tested on: OVCAR-4 ovarian
HCT-116 colon = tested on: HCT-116 colon
SNB-19 CNS = tested on: SNB-19 CNS
SN12C renal = tested on: SN12C renal
TK-10 renal = tested on: TK-10 renal
U251 CNS = tested on: U251 CNS
SK-OV-3 ovarian = tested on: SK-OV-3 ovarian
T-47D breast = tested on: T-47D breast
PC-3 prostate = tested on: PC-3 prostate
ACHN renal = tested on: ACHN renal
NCI-H23 lung = tested on: NCI-H23 lung
HT29 colon = tested on: HT29 colon
BT-549 breast = tested on: BT-549 breast
EKVX NSCLC = tested on: EKVX NSCLC
CCRF-CEM leukemia = tested on: CCRF-CEM leukemia
HOP-62 NSCLC = tested on: HOP-62 NSCLC
786-0 renal = tested on: 786-0 renal

Question: `N#CC(C(=O)C(=O)Nc1c(Cl)cccc1Cl)c1ccccc1` (stereo unspecified) was tested. Which TGI (OVCAR-5 ovarian) did it give?
Answer: 2.11 µM and > 100 µM

Question: What about the TGI (LOX IMVI melanoma) of the same molecule?
Answer: 1.41 µM and > 100 µM

Question: And the TGI (SF-295 CNS)?
Answer: 1.17 µM and > 100 µM

Question: `Cc1cc(O)c2c(c1)C(=O)C=CC2=O` was tested. Which TGI (SR leukemia) did it give?
Answer: 3.69 µM [sample A, mean of 2 tests] and > 100 µM [sample B, 1 test]

Question: What about the TGI (K-562 leukemia) of the same molecule?
Answer: 1.47 µM [sample A, 1 test] and > 100 µM [sample B, mean of 2 tests]

Question: With `N#Cc1nc2c(S(=O)(=O)c3ccc(Cl)cc3)c(N)n(Nc3cccc(Cl)c3)c2nc1C#N` as the molecule, how does the TGI (CAKI-1 renal) read?
Answer: 212 nM and > 100 µM

Question: And the TGI (MCF7 breast)?
Answer: 192 nM and > 100 µM

Question: And the TGI (OVCAR-4 ovarian)?
Answer: 66.2 nM and > 100 µM

Question: And the TGI (HCT-116 colon)?
Answer: 125 nM and > 100 µM

Question: And the TGI (SNB-19 CNS)?
Answer: 310 nM and > 100 µM

Question: What about the TGI (SN12C renal) of the same molecule?
Answer: 204 nM and > 100 µM

Question: And the TGI (TK-10 renal)?
Answer: 95.7 nM and 81.6 µM

Question: What about the TGI (K-562 leukemia) of the same molecule?
Answer: 200 nM and > 100 µM

Question: What about the TGI (U251 CNS) of the same molecule?
Answer: 104 nM and > 100 µM

Question: What about the TGI (SK-OV-3 ovarian) of the same molecule?
Answer: 333 nM and > 100 µM

Question: What about the TGI (T-47D breast) of the same molecule?
Answer: 466 nM and > 100 µM

Question: What about the TGI (PC-3 prostate) of the same molecule?
Answer: 14.8 nM and > 100 µM

Question: And the TGI (ACHN renal)?
Answer: 172 nM and > 100 µM

Question: What about the TGI (NCI-H23 lung) of the same molecule?
Answer: 188 nM and > 100 µM

Question: And the TGI (HT29 colon)?
Answer: 139 nM and > 100 µM

Question: And the TGI (LOX IMVI melanoma)?
Answer: 157 nM and > 100 µM

Question: What about the TGI (BT-549 breast) of the same molecule?
Answer: 735 nM and 68.3 nM

Question: And the TGI (EKVX NSCLC)?
Answer: 279 nM and > 100 µM

Question: What about the TGI (CCRF-CEM leukemia) of the same molecule?
Answer: 166 nM and 13.4 nM

Question: What about the TGI (HOP-62 NSCLC) of the same molecule?
Answer: 245 nM and > 100 µM

Question: And the TGI (786-0 renal)?
Answer: 154 nM and 3.35 µM
